Over roughly 33,000 sequences, “E-score (-0.5 to 0.5)” has its median near -0.054; the highest 2% begin near 0.39. The list shows a part of the results.
target: Ylr278c (UniProt Q05854); assay: PBM E-score (8-mer binding enrichment) (E-score (-0.5 to 0.5)); higher = stronger / more preferred TF binding; most listed sequences are background and not binding sites; details: protein concentration: 200 nM; construct: GST-DNA-binding domain
How it was run: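 Yeast transcription factors, full-length or as DNA-binding domains, were expressed with a GST tag using PURExpress in vitro transcription/translation. At about 100-200 nM they were applied to universal all-10-mer Agilent arrays, double-stranded by primer extension on fresh or once-stripped slides. Fluorescent anti-GST detected bound protein, and masliner normalised the scans. E-scores for ungapped eight-base words, pooled with reverse complements, came from the Universal PBM Analysis Suite.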

Sequence	PBM E-score
GGATAGTA	0.106
CTGATTAC	-0.0571
GTCACCGA	-0.0039
TATTAGCA	-0.0864
GGTCGATA	-0.0601
CGACTCCA	-0.0167
GAGATGAC	-0.0626
CCCCATCG	0.152
CGGACATA	0.454
ATACGGCC	0.0231
GCCAAATA	-0.0295
GTGGTGCA	-0.0509
GCCGATCC	0.278
CCATCTGC	0.0533
AACCAGAC	-0.332
AGTGCAAC	-0.155
AAACGCAA	0.0307
GTGCTCGA	0.0346
GTGTGGTA	-0.165
CGCAATAC	0.0448
GAGCATCC	0.0825
CTACGCAA	-0.215
CCTAGCAG	-0.268
GTTGGTTA	-0.0961
AGTCTTAT	-0.0837

Sequence	PBM E-score
AGTTTACG	-0.0241
AGTGATGG	-0.275
CACCTGGG	-0.248
AGCCACGA	-0.131
TAGAAAAA	-0.0496
AACTATGA	-0.193
GAACGTCC	0.133
CCATCGAC	-0.14
ATGGTAAC	-0.08
AGGATAAC	-0.309
ATCGATAC	-0.015
AGGCCATA	-0.0972
ACTTAGTG	-0.185
GCCACGTA	-0.289
GGGAAATA	0.0851
CTATCTGC	-0.0296
CCCGCAGC	0.264
CAACGGCA	-0.0393
GGCAGTTA	-0.0735
GATCGCAA	-0.0462
CATGCTTC	-0.181
CGCGGTCC	0.366
AAATGAAC	-0.192
GACAGATA	-0.0608
GTCATTAA	0.102

Sequence	PBM E-score
CAGCTACG	-0.338
GGCCAGAA	-0.0354
CGCTTCGA	0.0323
CAGACGAA	0.149
CGAGCAAA	0.093
AAACCGCG	0.273
CCGAGATA	0.243
ACAACAAA	-0.133
CCTCGGCA	0.25
CTCTGGAA	-0.22
ACTACTTA	-0.0798
TCCCGGGA	0.398
AAGCACCG	0.04
ATAGGGAT	-0.0391
CACTGGAC	-0.0735
GCGCCTGA	0.00147
GCGAGGAC	-0.116
CGACGGAA	0.339
GTCACAAC	-0.0361
AGTTCATA	-0.0477
CTTGCTTC	-0.176
CCCCTAGA	-0.272
AGAAATCA	0.0265
CCACACAC	0.114
AACGCGCG	0.22

Sequence	PBM E-score
CTCCGGAC	0.477
ACCGAGGC	-0.144
GACGGTCA	-0.138
GGTCTCGA	0.0953
ATGGAAAT	0.0565
GGCAGCGA	0.0771
GGGATACA	0.0595
ATTCGATG	-0.216
ATCGCTCA	-0.217
CATAGGTA	-0.273
ATTTGAGC	-0.102
ACAGCCCA	-0.2
CGATGCAA	0.183
CCGACCGG	0.383
ATGACATA	-0.174
AGTGTGCA	-0.11
CAAGACGA	-0.0476
ACGTTGAT	-0.207
CTGGCGGC	0.207
GTAGCGTA	-0.0749
ATACTTTG	-0.136
GGTCGTGA	-0.19
GAGAACCC	-0.0282
TCAATGGA	-0.123
CTCTTATA	0.0631

Sequence	PBM E-score
AGATGCAG	-0.262
AATTATCT	0.0914
CAGTGCAC	-0.0223
ACCTGACC	-0.149
AAAAACAC	-0.0909
GACCCCAC	0.127
AAGGCTGA	-0.152
AAATTGTG	-0.26
AAGAACAC	0.0131
CTGGTTTC	0.0107
ACCGAACT	0.0468
AGCACAAC	0.175
CAGCGCAG	0.00799
CACGCTGA	-0.189
CAAGACCC	-0.109
AAGACTCG	-0.0276
CCGCGGCG	0.364
CCAGTGAA	-0.0717
GACGCCTA	-0.172
TCCCCAAA	-0.0318
CGATTGTC	0.12
CAAAAGCC	0.18
CTGATCGA	-0.198
AATACAGC	-0.0142
ACTTCATC	-0.103

Sequence	PBM E-score
GAAGGTAC	-0.235
AGGTCGTG	-0.281
AGGCCACA	-0.282
AGGTAATA	0.0169
GTGGCCCA	-0.196
ATCCCTCG	0.208
ATTCTTCG	-0.00036
GAGGCCAC	-0.193
CGTGATAA	-0.0572
AGTTCACC	0.126
GTTTGGTA	0.0237
CCTCACAG	-0.134
AAAGCCTT	-0.162
CTGCATAA	-0.0728
CAATGATA	-0.0669
GATGTCGC	-0.0629
GATTGGGA	-0.106
CTCATACC	-0.0662
CGCTAGTA	0.17
CTGGTGGC	-0.164
AATCTCAG	-0.103
GCTTCACA	-0.115
ACTTCTTG	-0.065
ATTATGAA	-0.00699
AGTCGCAT	-0.199

Sequence	PBM E-score
GCTCAAAC	0.129
GCGAGCAC	-0.14
GTGTTCGA	-0.0363
CGTTTTCA	0.0373
CCGCCCCG	0.42
ATAAAATA	-0.0515
AAACGTCC	-0.0644
AAGTAGAT	-0.0116
ACGATGCG	-0.123
CGCTCACG	0.207
AACGTACG	-0.145
ACTGCCTG	-0.243
ACGTGAAT	-0.147
CGTCTACC	0.0196
GCGGCTAC	0.135
AGGTGGAC	-0.19
GTTCCGCA	0.289
GAACGGTA	-0.0663
CCAGTACA	-0.227
AGGGGTTC	0.0104
AATTGGCA	-0.161
ATCTTGAC	-0.292

Source: the supplement of paper PMC3334620
